The target in assay [1] is T1, BD-FRH (Metarhizium robertsii FRQ-interacting RNA helicase FRH in the bait vector pGBKT7) (Metarhizium robertsii) (UniProt E9F8I5).
T1 sequence: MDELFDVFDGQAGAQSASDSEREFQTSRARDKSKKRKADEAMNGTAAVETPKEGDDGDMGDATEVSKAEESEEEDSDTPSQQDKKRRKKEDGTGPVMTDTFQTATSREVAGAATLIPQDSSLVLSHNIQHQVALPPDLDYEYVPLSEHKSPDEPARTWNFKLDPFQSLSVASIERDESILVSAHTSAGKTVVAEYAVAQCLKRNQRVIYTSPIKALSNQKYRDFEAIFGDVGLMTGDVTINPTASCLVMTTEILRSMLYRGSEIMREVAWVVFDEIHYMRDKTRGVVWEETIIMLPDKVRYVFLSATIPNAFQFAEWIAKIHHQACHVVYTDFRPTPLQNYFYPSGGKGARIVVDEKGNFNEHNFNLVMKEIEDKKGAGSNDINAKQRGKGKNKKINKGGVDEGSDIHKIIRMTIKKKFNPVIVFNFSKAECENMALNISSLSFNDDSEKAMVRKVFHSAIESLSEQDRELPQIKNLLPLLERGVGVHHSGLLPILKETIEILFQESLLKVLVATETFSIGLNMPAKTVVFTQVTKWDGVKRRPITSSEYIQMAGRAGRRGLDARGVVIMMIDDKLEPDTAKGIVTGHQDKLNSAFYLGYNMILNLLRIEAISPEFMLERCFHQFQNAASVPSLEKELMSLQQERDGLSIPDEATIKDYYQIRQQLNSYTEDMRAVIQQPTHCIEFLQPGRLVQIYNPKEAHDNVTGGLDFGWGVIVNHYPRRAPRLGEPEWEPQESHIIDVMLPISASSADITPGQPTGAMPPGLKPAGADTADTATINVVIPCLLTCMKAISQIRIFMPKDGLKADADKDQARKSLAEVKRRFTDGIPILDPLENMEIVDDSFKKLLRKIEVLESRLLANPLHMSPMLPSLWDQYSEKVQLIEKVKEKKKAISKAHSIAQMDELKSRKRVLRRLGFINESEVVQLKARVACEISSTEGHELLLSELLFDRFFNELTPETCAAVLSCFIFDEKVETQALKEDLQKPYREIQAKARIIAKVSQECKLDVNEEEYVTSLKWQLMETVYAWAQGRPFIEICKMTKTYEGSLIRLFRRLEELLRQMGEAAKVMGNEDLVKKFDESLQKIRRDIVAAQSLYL
The experiment in a line: two-hybrid; Matchmaker GAL4 Two-Hybrid System 3; preys in pGADT7 (AD), baits in pGBKT7 (BD); Y187 x Y2HGold diploids spotted (10^5, 10^6, 10^7 cells/mL) on SD/-Leu/-Trp/X-α-Gal/AbA and SD/-Leu/-Trp/-Ade/-His/X-α-Gal/AbA plates, 3 d at 30 °C.

Assay [2] deals with T2, BD-FRQ (Metarhizium robertsii frequency protein FRQ in the bait vector pGBKT7) (Metarhizium robertsii) (UniProt E9EXC4).
T2 sequence: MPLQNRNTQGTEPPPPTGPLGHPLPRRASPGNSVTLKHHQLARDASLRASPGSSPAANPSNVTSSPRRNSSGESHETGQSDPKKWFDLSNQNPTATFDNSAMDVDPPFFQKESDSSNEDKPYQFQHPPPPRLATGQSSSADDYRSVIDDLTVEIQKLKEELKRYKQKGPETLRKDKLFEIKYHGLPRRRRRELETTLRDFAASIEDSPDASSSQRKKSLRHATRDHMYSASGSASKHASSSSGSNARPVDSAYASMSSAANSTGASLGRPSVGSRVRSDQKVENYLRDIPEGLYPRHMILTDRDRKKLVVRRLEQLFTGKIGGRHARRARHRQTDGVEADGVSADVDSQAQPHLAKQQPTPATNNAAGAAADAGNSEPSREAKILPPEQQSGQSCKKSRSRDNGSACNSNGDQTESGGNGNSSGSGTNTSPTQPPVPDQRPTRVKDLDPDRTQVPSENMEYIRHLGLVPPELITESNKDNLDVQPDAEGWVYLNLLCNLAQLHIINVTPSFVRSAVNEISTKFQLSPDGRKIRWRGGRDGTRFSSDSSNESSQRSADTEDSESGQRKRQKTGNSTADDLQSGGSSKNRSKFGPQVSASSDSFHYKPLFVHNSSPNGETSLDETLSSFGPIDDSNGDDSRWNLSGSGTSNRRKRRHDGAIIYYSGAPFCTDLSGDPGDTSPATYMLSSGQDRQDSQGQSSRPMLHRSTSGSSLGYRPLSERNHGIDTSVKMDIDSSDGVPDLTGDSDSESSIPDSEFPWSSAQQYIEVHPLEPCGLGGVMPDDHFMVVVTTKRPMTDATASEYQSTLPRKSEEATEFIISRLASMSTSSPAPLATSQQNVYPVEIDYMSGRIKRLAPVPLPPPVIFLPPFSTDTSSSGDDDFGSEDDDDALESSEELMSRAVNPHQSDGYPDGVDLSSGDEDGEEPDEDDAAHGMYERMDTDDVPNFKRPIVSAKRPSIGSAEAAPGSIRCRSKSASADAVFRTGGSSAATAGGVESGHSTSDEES
Described as above.

Results are given in words; binding and its absence hold for the method and conditions named. Some binding calls cover weakened binding; strength is not graded here. Tags and fused reporters may be left off the sequences shown.

B1: AD-WC1 (Metarhizium robertsii white collar protein WC1 in the prey vector pGADT7) (protein, UniProt E9EWQ4 1-1004)
chain: MDDYYKTNALPPQEGQRQMPQQHEGQQQQQQQPSGNVIDMINRSSVSGSQMPLQPPPSAMPQLLQNQPMISGDSLDDIIRNNHTEMHRRKSMPHAYGSPLMQDENPRRMSSIAASEDVMAFDPSQHDLGNFQFSQPVGSSFHGINPSLEMTDQMGGFVTDATDYSGISADLIGPMNPPPFGNVELSQMPNEPSLSLFPPSPVPGAGSGVRPMNSGFVSGQIPNLSATFGTEPAPSSSTLTVTSNTLPGSIDDHPDGMMHISTSQLNAVNPPASRVPETMAANPVSSNLGQPLPHSLSRHISSESGITQPSSTSGPTTPATTSTPRESKEKTIYSKSGFDMLKALWLVATRKDPKIHLGAVDMSCAFVVCDVTMNDCPIIYVSDNFQNLTGYSRHEIVGQNCRFLQAPDGKVEAGSKREFVDDGAVYNLKNMIQEGREVQQSLINYRKGGKPFLNLLTMIPIPWDTDDIRYFIGFQIDLVECPDAISGQELGGVKVNYKHNDIGQYIWTPPASSQWQPENGQTLGVDDVSTLLQQFSPKGLVSDWHKQSWDKMLLENTDDVVHVLSLKGLFLYLSPSSKRVLEYDAIDLVGNSLSSVCHPSDIVPVTRELKDATASAQVNIVFRIRRKQSGYTWFESHGSLFVEQGKGRKCLILVGRKRPVFALSRKNLESNGGIGDSELWTKLSTSGMFLFVSSNVRSLLDLQPESLVGTSIQELMRKESRPDFGRKIEAARRGKIVSCEHEVQNRRGQGLRALTILYPGDAPEGQKPSFLLAQTKLVKAKNVVLATATSNSKAASTSSQSNAVPELHSGAGQVSQPPGGGLPLGTQDAALAALAAEDNIFDELRTTKCSSWQFELRQMEKVNRILAEELGGLLSNKKKRKRRKGVGNMTGRVSPRNSSRGGNNGNGDSQSKKSPSPIHSSPLHKELASENPTSQAVVAKGDTDETDMLNPSQLGNHVSNEASESNLVQRQIMVMPPPSQPSLSSGAAGSGMTSIREEHEASQS
Consider B1, for which the binding result is given as “no binding” in assay [1] and “binds” in assay [2].

B2: AD-FRQ (Metarhizium robertsii frequency protein FRQ in the prey vector pGADT7) (protein, UniProt E9EXC4 1-1005)
chain: MPLQNRNTQGTEPPPPTGPLGHPLPRRASPGNSVTLKHHQLARDASLRASPGSSPAANPSNVTSSPRRNSSGESHETGQSDPKKWFDLSNQNPTATFDNSAMDVDPPFFQKESDSSNEDKPYQFQHPPPPRLATGQSSSADDYRSVIDDLTVEIQKLKEELKRYKQKGPETLRKDKLFEIKYHGLPRRRRRELETTLRDFAASIEDSPDASSSQRKKSLRHATRDHMYSASGSASKHASSSSGSNARPVDSAYASMSSAANSTGASLGRPSVGSRVRSDQKVENYLRDIPEGLYPRHMILTDRDRKKLVVRRLEQLFTGKIGGRHARRARHRQTDGVEADGVSADVDSQAQPHLAKQQPTPATNNAAGAAADAGNSEPSREAKILPPEQQSGQSCKKSRSRDNGSACNSNGDQTESGGNGNSSGSGTNTSPTQPPVPDQRPTRVKDLDPDRTQVPSENMEYIRHLGLVPPELITESNKDNLDVQPDAEGWVYLNLLCNLAQLHIINVTPSFVRSAVNEISTKFQLSPDGRKIRWRGGRDGTRFSSDSSNESSQRSADTEDSESGQRKRQKTGNSTADDLQSGGSSKNRSKFGPQVSASSDSFHYKPLFVHNSSPNGETSLDETLSSFGPIDDSNGDDSRWNLSGSGTSNRRKRRHDGAIIYYSGAPFCTDLSGDPGDTSPATYMLSSGQDRQDSQGQSSRPMLHRSTSGSSLGYRPLSERNHGIDTSVKMDIDSSDGVPDLTGDSDSESSIPDSEFPWSSAQQYIEVHPLEPCGLGGVMPDDHFMVVVTTKRPMTDATASEYQSTLPRKSEEATEFIISRLASMSTSSPAPLATSQQNVYPVEIDYMSGRIKRLAPVPLPPPVIFLPPFSTDTSSSGDDDFGSEDDDDALESSEELMSRAVNPHQSDGYPDGVDLSSGDEDGEEPDEDDAAHGMYERMDTDDVPNFKRPIVSAKRPSIGSAEAAPGSIRCRSKSASADAVFRTGGSSAATAGGVESGHSTSDEES
On to B2, for which, in assay [1], the binding entry is reported as “binds”.

B3: AD-WC2 (Metarhizium robertsii white collar protein WC2 in the prey vector pGADT7) (protein, UniProt E9F591 1-445)
chain: MDPFGDVSMNIDSGNGAQVMPVPSSMPANTNEDVAMMNDADAQASSSNVAQPQDDPLAMAVEKVPGAGPLPPRTFAQMSLNGGGSSGSASTLTDFTKRRNWPAKVVEELKDFLHILDANGRIKYASGSIFGISGYTAAEVQDVFLKDFIHPDDQGVFVAELNESIASGSPLRMFYRFKTKSGNYTVLETVGHAHIAAARFAPNPNNQSPFCQAVFMMSRTYPTKNAGLLDSFLEHKMENERLRRRISELRREEEAETEESNRQWVQSQEGRSDMTPSETTGTSTPFFRNASSTSDMQADGSALTRENLEGVAAGRNSDSLGDKMARYEGSTHAETIELLTGLRYLEGERSRGITTGGSSPTLIRGDAGIAIPIDRDARAGEKKKKLKTAEEYVCTDCGTLDSPEWRKGPNGPKTLCNACGLRWAKKEKKKTNASQKGAVADQMMG
With B3, the binding result in assay [1] and in assay [2] was “no binding” in each case.

Values taken from article PMC9224670.
